# Test results as given in publication PMC4594927 (PLoS ONE, 2015).
# How the values were obtained:
# CpIMPDH [1] = molecular target: T1, CpIMPDH (Cryptosporidium parvum, UniProt Q8T6T2); details: cited from earlier work
# MtbIMPDH2 = details: cited from earlier work
# hIMPDH1 = details: cited from earlier work
# hIMPDH2 = details: cited from earlier work
# Mtb strain H37Rv = experiment: microbe, parasite or virus in culture; assay type: cell-based, Mycobacterium tuberculosis; details: for MIC: Mycobacterium tuberculosis, H37RV
# CpIMPDH [2] = molecular target: T1, CpIMPDH; experiment: biochemical
# [3] = 168 h, read-out: MIC in 7H9 media + Gua
# [4] = 168 h, read-out: MIC in GAST media + Gua
# [5] = 168 h, read-out: MIC in GAST media - Gua
# [6] = read-out: MIC in 7H9 media - Gua
# T1 sequence (Q8T6T2 whole entry): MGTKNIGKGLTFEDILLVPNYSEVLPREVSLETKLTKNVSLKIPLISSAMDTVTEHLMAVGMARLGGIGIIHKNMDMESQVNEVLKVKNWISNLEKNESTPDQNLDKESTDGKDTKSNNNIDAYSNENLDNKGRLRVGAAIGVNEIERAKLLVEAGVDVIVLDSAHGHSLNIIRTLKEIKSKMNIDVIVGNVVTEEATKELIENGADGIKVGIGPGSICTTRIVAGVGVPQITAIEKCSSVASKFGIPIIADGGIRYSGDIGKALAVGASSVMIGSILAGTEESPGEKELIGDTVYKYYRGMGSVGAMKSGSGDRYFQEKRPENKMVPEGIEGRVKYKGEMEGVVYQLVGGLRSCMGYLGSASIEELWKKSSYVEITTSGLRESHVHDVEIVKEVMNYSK
structure (smiles),measurement,setting,value
CC(C)c1cccc(C(C)(C)NC(=O)Nc2ccc3ccccc3c2)c1 [P22],Ki,CpIMPDH [1],> 5000 nM
C=C(C)c1cccc(C(C)(C)NC(=O)Nc2ccccc2Cl)c1 [P39],Ki,CpIMPDH [1],> 5000 nM
CC(=O)c1cccc(C(C)(C)NC(=O)Nc2ccc(Cl)c([N+](=O)[O-])c2)c1 [P93],Ki,CpIMPDH [1],20 ± 10 nM
C=C(C)c1cccc(C(C)(C)NC(=O)Nc2cnc3ccccc3c2)c1 [P59],Ki,CpIMPDH [1],70 ± 1 nM
CC(=O)c1cccc(C(C)(C)NC(=O)Nc2ccc3cccnc3c2)c1 [P24],Ki,CpIMPDH [1],29 ± 18 nM
CC(=NO)c1cccc(C(C)(C)NC(=O)Nc2ccc(Cl)c(C(F)(F)F)c2)c1 [P82],Ki,CpIMPDH [1],1 ± 0.1 nM
C=C(C)c1cccc(C(C)(C)NC(=O)Nc2cccc3ccccc23)c1 [P17],Ki,CpIMPDH [1],> 5000 nM
NC(=O)c1ccc[n+]([C@@H]2O[C@H](COP(=O)([O-])OP(=O)(O)OC[C@H]3O[C@@H](n4cnc5c(N)ncnc54)[C@H](O)[C@@H]3O)[C@@H](O)[C@H]2O)c1 [NAD+],Kii (NAD+),MtbIMPDH2,5.0 ± 0.6 mM
same,Km,MtbIMPDH2; read-out: Km (NAD+),1000 ± 95 µM
same,Kii (NAD+),hIMPDH1,2.0 ± 0.6 ^d mM
same,Km,hIMPDH1; read-out: Km (NAD+),42 to 70 µM
same,Kii (NAD+),hIMPDH2,0.59 ± 0.02 ^e mM
same,Km,hIMPDH2; read-out: Km (NAD+),6 to 32 µM
C=C(C)c1cccc(C(C)(C)NC(=O)Nc2ccc(Cl)c(C(=O)N(C)C)c2)c1 [P41],MIC,Mtb strain H37Rv; [3],≥ 38 µM
same,MIC,Mtb strain H37Rv; [4],≥ 40 µM
same,MIC,Mtb strain H37Rv; [5],5 ± 3.1 µM
same,MIC,Mtb strain H37Rv; read-out: M. tuberculosis MIC,5 µM
same,MIC,Mtb strain H37Rv; [6],33.3 ± 13.5 µM
C=C(C)c1cccc(C(C)(C)NC(=O)Nc2cccc(Cl)c2)c1 [P15],Ki,CpIMPDH [1],70 ± 10 nM
C[C@H](Oc1ccccc1Cl)C(=O)Nc1ccc2oc(-c3ccncc3)nc2c1 [Q77],MIC,Mtb strain H37Rv; [3],19 µM
same,MIC,Mtb strain H37Rv; [4],37 µM
same,MIC,Mtb strain H37Rv; [5],6.3 ± 3 µM
same,MIC,Mtb strain H37Rv; read-out: M. tuberculosis MIC,6.3 µM
same,MIC,Mtb strain H37Rv; [6],11 ± 2 µM
same,Ki,CpIMPDH [2],13 nM
CON=C(C)c1cccc(C(C)(C)NC(=O)Nc2ccc(Cl)c(C#N)c2)c1 [P69],Ki,CpIMPDH [1],10 ± 5 nM
CC(=NOCCN)c1cccc(C(C)(C)NC(=O)Nc2ccc(Cl)c([N+](=O)[O-])c2)c1 [P131],Ki,CpIMPDH [1],20 ± 3 nM
CC(=NO)c1cccc(C(C)(C)NC(=O)Nc2ccc(Cl)c(Cl)c2)c1 [P47],Ki,CpIMPDH [1],190 ± 10 nM
C=C(C)c1cccc(C(C)(C)NC(=O)Nc2ccc(Cl)c(C(=O)NC)c2)c1 [P42],Ki,CpIMPDH [1],7 ± 2 nM
CC(=O)c1cccc(C(C)(C)NC(=O)Nc2ccc(Cl)c(C(N)=O)c2)c1 [P25],antitubercular activity (active / inactive),Mtb strain H37Rv,inactive
same,Ki,CpIMPDH [1],54 ± 7 nM
CC(=O)c1cccc(C(C)(C)NC(=O)Nc2ccc(Cl)cc2)c1 [P20],Ki,CpIMPDH [1],39 ± 10 nM
CC(=O)c1cccc(C(C)(C)NC(=O)Nc2ccc(Cl)c(C(F)(F)F)c2)c1 [P80],Ki,CpIMPDH [1],9 ± 5 nM
C=C(C)c1cccc(C(C)(C)NC(=O)Nc2ccccc2)c1 [P38],Ki,CpIMPDH [1],250 ± 20 nM
C=C(C)c1cccc(C(C)(C)NC(=O)Nc2ccc(Cl)c(Cl)c2)c1 [P13],Ki,CpIMPDH [1],6 ± 1 nM
CC(=NO)c1cccc(C(C)(C)NC(=O)Nc2ccc3cccnc3c2)c1 [P27],Ki,CpIMPDH [1],0.9 ± 0.2 nM
C=C(C)c1cccc(C(C)(C)NC(=O)Nc2ccc(C(C)(C)C)cc2)c1 [P104],Ki,CpIMPDH [1],> 5000 nM
CC(=NO)c1cccc(C(C)(C)NC(=O)Nc2ccc(Cl)cc2)c1 [P37],Ki,CpIMPDH [1],5 ± 3 nM
C[C@H](Nc1cccc(Cl)c1Cl)C(=O)Nc1ccc2oc(-c3ccncc3)nc2c1 [Q67],MIC,Mtb strain H37Rv; [3],35 ± 15 µM
same,MIC,Mtb strain H37Rv; [4],50 µM
same,MIC,Mtb strain H37Rv; [5],6.7 ± 3 µM
same,MIC,Mtb strain H37Rv; read-out: M. tuberculosis MIC,6.7 µM
same,MIC,Mtb strain H37Rv; [6],11.8 ± 6.3 µM
same,Ki,CpIMPDH [1]; read-out: CpIMPDH Kiapp,0.5 ± 0.1 nM
C=C(C)c1cccc(C(C)(C)NC(=O)Nc2ccc3ccccc3n2)c1 [P54],Ki,CpIMPDH [1],80 ± 20 nM
C=C(C)c1cccc(C(C)(C)NC(=O)Nc2ccc3ncccc3c2)c1 [P55],Ki,CpIMPDH [1],1.8 ± 0.4 nM
C=C(C)c1cccc(C(C)(C)NC(=O)Nc2ccc3ccccc3c2)c1 [P14],Ki,CpIMPDH [1],2.1 ± 0.8 nM
CON=C(C)c1cccc(C(C)(C)NC(=O)Nc2ccc(Cl)c(C(F)(F)F)c2)c1 [P83],Ki,CpIMPDH [1],5 ± 1 nM
CON=C(C)c1cccc(C(C)(C)NC(=O)Nc2ccc(Cl)c(C(N)=O)c2)c1 [P74],antitubercular activity (active / inactive),Mtb strain H37Rv,inactive
same,Ki,CpIMPDH [1],5 ± 2 nM
C=C(C)c1cccc(C(C)(C)NC(=O)Nc2ccc(Cl)cc2)c1 [P11],Ki,CpIMPDH [1],20 ± 7 nM
"COc1c(C)c2c(c(O)c1C/C=C(\C)Cn1cc(COC[C@H]3O[C@@H](n4cnc5c(N)ncnc54)[C@H](O)[C@@H]3O)nn1)C(=O)OC2 [MAD1, reference compound]",MIC,Mtb strain H37Rv; [3],75 µM
same,MIC,"Mtb strain H37Rv; 336 h, read-out: MIC in GAST media + Gua",> 100 µM
same,MIC,"Mtb strain H37Rv; 336 h, read-out: MIC in GAST media - Gua",100 µM
same,MIC,Mtb strain H37Rv; [6],50 µM
C=C(C)c1cccc(C(C)(C)NC(=O)Nc2ccc(Cl)c(OC)c2)c1 [P105],Ki,CpIMPDH [1],1.3 ± 0.2 nM
C=C(C)c1cccc(C(C)(C)NC(=O)Nc2ccc(Cl)c(C(N)=O)c2)c1 [P16],antitubercular activity (active / inactive),Mtb strain H37Rv,inactive
same,Ki,CpIMPDH [1],2.3 ± 0.8 nM

# Like-named read-outs stand apart in the source and are kept apart here. Marks after values point to notes of the source that are not given here.
